The supplement of paper PMC10126150
Sequences with one replicate were seen in a single cluster, so their values are uncertain.

System: ATP
Experiment: switch fluorescence ratio, 500 uM ATP over buffer (Cy3 cluster intensity, sum of 5 cycles each) (fold (ratio)); higher = stronger signal-on switching upon ATP binding; sequences stand for … in TCGTCGGCAGCGTCAGATGTGTATAAGAGACAGTTTTTTTTTTTTTTTTTTTTTTTTT…TC
Details: aptamer strand: ATP DNA aptamer (quencher-CACCTGGGGGAGTATTGCGGAGGAAGG + anchor), 100 nM annealed; ATP concentration: 500 uM; one replicate
Outline: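 Cy3-labelled switching-strand clusters on a modified Illumina MiSeq flow-cell were annealed to 100 nM quencher-labelled ATP aptamer, imaged in selection buffer, then imaged after 15 min with 500 uM ATP at 22 °C. Five buffer/ATP cycles ran, with NaOH stripping and re-annealing between them. The fluorescence ratio is summed target-cycle over summed buffer-cycle Cy3 intensity per cluster, averaged per switch-domain sequence. Clusters outside 100-1000 RFU were excluded.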
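Also: ATP exposure 15 min at 22 °C before imaging.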

Sequence | switch fluorescence ratio
GACACTGCTA | 1.26
ATTAAGGGC | 0.946
CGAGTAATCC | 1.74
ACAGAACGTT | 1.13
GAATCTGGGT | 0.999
AGTATATCAG | 0.992
TTCGCTGGAT | 1.02
GAGTAGATGA | 0.965
GGCTGTTGTG | 0.995
GGCAGAGCCG | 0.952
GTCTAGATAT | 0.997
TTTTATTTG | 0.983
TCTGCCGGCC | 1.06
CACTGGTGTC | 1.16
ACGCTGACAG | 1.04
CTTACCGTA | 1.09
AAAAGTTTAA | 0.966
AAGGTGTGG | 1.05
CATTTTGCAA | 1.26
ACGGACCGGG | 1.17
TGACGGCCCC | 1.05
TTTCGTTTAA | 0.989
GCACGGTGAA | 1.05
TTTCGTTTG | 1.02
CATTTGACAA | 0.977
GTCAACCAGT | 1.01

Sequence | switch fluorescence ratio
CACAGGGGGT | 1.17
ACCATAGGTT | 0.99
GACCGTAAA | 1.16
ACCCCGTGGG | 0.998
CACGCGCCAA | 1.23
GCAGAAGCGG | 0.994
TAGGCGTGAT | 1.02
TTGTAAA | 1.01
GCTGCTGTAC | 3.17
CGTTTCCAGA | 0.982
AAGTGCGGAG | 0.994
ATCTGGAAGC | 1.41
CGAATACCTT | 1.13
CGGGAAGGTG | 1.46
GTGGTACCGC | 1.03
TGTGCACCCG | 1.02
CATTTTTTG | 1
GGCGTCCGTG | 1.01
AGATGTAAAA | 1.04
ACGATGTTG | 1.04
CTGAGGGACA | 1
AACCGAGCGA | 1.87
GGCCGTGTTG | 1.02
TCGAAGGTCC | 1.05
TGAGAATTGT | 1.11
ATTAGGTTCC | 1.06

Sequence | switch fluorescence ratio
CCTGGTAGTC | 1.08
TAGAGCGTCG | 1
GGCCGGAAGT | 0.99
GTGACTCAC | 1.06
GGCAGAGCTT | 0.981
CCGGTCCGAC | 1.7
AGAACGTACC | 1.7
ATGGCTCAGA | 0.959
AGTTCTCATG | 0.97
TAAAAGACCT | 1.51
CGTGCTGATA | 0.998
AGTGCTTCTG | 1.07
ATGCGACTGT | 0.958
ATGGGCTGTA | 0.914
GAAGCTTTTA | 1.03
TGGCGGCCTT | 0.999
CCGGTGGAG | 1.01
GGTCAAACTA | 0.998
TATCTAGTCT | 0.979
CAGTGATTTT | 1.03
CGGGACACTT | 1
TCGGGCCTTT | 1.01
CATTTCGCCA | 1.14
GTGGGACA | 0.969
CGTATAGTTC | 0.943
GCCATGAACG | 1.07

Sequence | switch fluorescence ratio
AGCTGCCTCT | 1.03
ACCCGAGTG | 1.23
TGTGTTACTG | 1.01
ATCCTTCGTC | 1.97
GACACACATG | 1.02
TTAGCGTTCC | 2.09
TTCGGTAGTA | 0.985
GTATGGGCTG | 1.05
TGTGACGCAT | 1.15
AGTTAATT | 0.94
AGTTAAAATT | 0.953
CTTGTTCGTT | 0.982
ATTGACCCTT | 1.06
GCTTGCCAAT | 1.01
ATTTGCATG | 0.994
CTGTACCCCT | 1.12
CAGCTAGATT | 1.04
TCGTGACCTT | 1.15
GGGGACCCGA | 1
CAGGTTTTAT | 1.01
AATGTGGCCC | 1.04
TATTGTTCCC | 0.955
GAGGGTCGAT | 1.03
TGGATGTTCA | 1.01
CCCATCGGCT | 1.03
AACTGACGGT | 1.09

Sequence | switch fluorescence ratio
CTTGGATCCA | 0.978
GCGGCCTTCA | 1.03
CACGTCCCTT | 1.01
AATCCATTCA | 1.07
AATCCCGGCG | 1.03
GACTTCCTTT | 1.09
TTACTCTCCC | 1.3
ATAAAACC | 1.03
CGACGACCTC | 1.88
AGTTTAGCAT | 1.05
TTTTCAAACG | 1.03
AATATTTTAA | 1.01
ACGTCAGGGC | 1.09
CGCCCGCCTT | 1.22
TTATAGAGCT | 0.999
TACAAGAGTG | 0.919
GAGACAGCGG | 0.995
GAAGGGCAAA | 0.958
CTTCAAATAT | 1.04
TAGTTATATC | 1.04
TTCGCACCTA | 1.18
TTTTGTGACT | 0.971
GAAGGACGT | 0.993
TCAGGGAAA | 0.968
GCCCACGCAC | 1.76
CCCAAGGCTA | 1.13

Sequence | switch fluorescence ratio
AACTGTAGTG | 1.02
CTTGGGATGT | 0.959
CCGAGGTGCG | 0.999
TTCAATTCGC | 1.11
AAAGGC | 1.15
GCGAAGGGAG | 0.981
TAGGTTGACG | 0.938
CTAGCATGGC | 1.03
CTCTGGTC | 0.979
CGGTTCATG | 0.977
GTGATAATCA | 1.01
TGCATACGCA | 1.05
AAGGGAAAAG | 1.04
TATAAACAA | 1.02
CGGGATATGT | 0.985
TATTAATCTG | 0.957
ATGCTATTCG | 0.977
GTTAGGTCTG | 1.02
CTGTCCCAGC | 1.07
GATGTCCTTG | 0.974
TCCTGGCAGC | 1.61
ATCCTGGTCT | 1.02
AGTTAAGAA | 0.975
CGTTTGATCG | 1.02
CGCTGTGGGT | 0.984
GAGGGCAGA | 1.03

Sequence | switch fluorescence ratio
ATTTTTGTT | 0.963
GGTCGATTGA | 0.987
TCTTCTTGTA | 0.989
TCATTGCCAA | 1.08
CATTCGGTCG | 1.04
CTAAATCGGG | 0.961
ACGTAGGAGT | 1.07
CTCCCGTTAT | 2.3
TTGCACTCGC | 0.977
GTATATAGCT | 0.97
CAGTCCTTTT | 1.02
AGTAACGAAT | 1.03
GTTGACCTTG | 1.02
TAGGCCCAGA | 0.959
TGCCTGTTAT | 1.19
AGGGTATAAC | 0.963
ACCTACACTT | 1.24
GGGCACAATG | 1.01
CTATTTCCT | 1.05
TCATACGGCC | 1.06
GGCTTAAACA | 0.956
GATAAGGTGC | 1.24
CAGTTATAGA | 1.02
TGTAGCTTTT | 0.991
TTTAAGATGT | 1
AGCGACTGAC | 1.35

Sequence | switch fluorescence ratio
ACAGGATGTA | 1.05
CCATGTAAGG | 0.963
GCGACTGTGG | 1.05
AAATTATCAA | 0.955
ACTCTCAGGA | 1.1
AGAATCAAGG | 0.993
TTAAGCCACC | 1.21
TAGGTTGAAG | 0.949
ATCTGATGAT | 1.02
TTACTATTAT | 1.05
ATGCCTCTGC | 0.947
CATGACTCGA | 1.01
AGGCCCGTAC | 1.06
TTCCGACCCT | 1.16
CAGTTGTGGA | 1.01
TGTGTGAGCA | 0.994
TGTGAAAATG | 0.961
TTTTTCGCCG | 1.41
ACAAATAAC | 0.985
